The supplement of paper PMC10126150
Values marked as one replicate rest on one cluster of the flow cell; about a third of the high ones do not repeat.

tested on: ATP; test: switch fluorescence ratio, 500 uM ATP over buffer (Cy3 cluster intensity, sum of 5 cycles each) (fold (ratio)); higher = stronger signal-on switching upon ATP binding; sequences stand for … in TCGTCGGCAGCGTCAGATGTGTATAAGAGACAGTTTTTTTTTTTTTTTTTTTTTTTTT…TC; conditions: aptamer strand: ATP DNA aptamer (quencher-CACCTGGGGGAGTATTGCGGAGGAAGG + anchor), 100 nM annealed; ATP concentration: 500 uM; one replicate
Outline: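 Imaging in selection buffer was followed by imaging after 15 min with 500 uM ATP at 22 °C, for Cy3-labelled switching-strand clusters annealed to 100 nM quencher-labelled ATP aptamer on a modified Illumina MiSeq flow-cell. Five of these buffer/ATP cycles ran, separated by NaOH stripping and re-annealing. The fluorescence ratio per cluster is summed target-cycle over summed buffer-cycle Cy3 intensity, averaged per switch-domain sequence; clusters outside 100-1000 RFU were removed.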
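Also: ATP exposure 15 min at 22 °C before imaging.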

Row | Sequence | switch fluorescence ratio
1 | TTGTAAATCT | 0.984
2 | TGCATTCGAA | 1.02
3 | GATGGAGGCG | 0.96
4 | GGGTAGTGC | 0.975
5 | ATGACGTCTA | 0.968
6 | TCTTCGGGG | 0.989
7 | TGATGCGCGG | 1
8 | TTGGTATGTC | 0.979
9 | AATGAGATAT | 1.01
10 | CCGGTGCTTC | 2.3
11 | ATCGTCTGGA | 1.02
12 | AAGTGAGCAC | 1.03
13 | GAGTTCAGTC | 0.969
14 | ACATTGAAGG | 0.991
15 | CCTCGACAC | 3.88
16 | GTGGTAGGTG | 0.952
17 | AGGAGTACTC | 0.998
18 | GTGTCTTTCA | 1.02
19 | AGGTCCGGCA | 1.04
20 | ACTTAATAAA | 0.998
21 | TCGAATTGTT | 1
22 | AAGGCTATTT | 0.965
23 | ATCCCTACAA | 1.03
24 | CTGTGTATTT | 1.04
25 | GGGATTCATA | 1.02

Row | Sequence | switch fluorescence ratio
26 | TTCAAACGA | 0.992
27 | TGACTCTATG | 1.09
28 | TCCAGAACTC | 1.07
29 | CATTCTAAGG | 1.01
30 | ACTTACATAC | 1.55
31 | GAGATTGTT | 0.999
32 | AAGACTATCG | 1.02
33 | CGGTATGCTT | 0.99
34 | AAGGTTAACG | 0.981
35 | CCTTAGGAAT | 1.01
36 | ATCGATGCTG | 1.06
37 | TTGAGCGAAA | 1
38 | GATCCCCTGT | 0.996
39 | CCTTGTTTCG | 1.07
40 | AGTCATATAT | 1.02
41 | TCCGGTTCAC | 1.21
42 | GGAAGAAGGA | 0.97
43 | TGGGTGCCAA | 0.998
44 | CGGCTCGTTC | 0.943
45 | AGTAGATATT | 0.98
46 | TAGTAAGACT | 0.974
47 | ATCGTGGAGG | 1.01
48 | TCCACGGA | 1.06
49 | GTTGGAATAT | 1.03
50 | TTGGCATTGT | 0.976

Row | Sequence | switch fluorescence ratio
51 | AGTTTACCCT | 1.01
52 | TTTAACAGT | 0.953
53 | CTTTCGGCTG | 0.96
54 | TGCCTATCTA | 1.02
55 | CGAGGCGCTG | 1.02
56 | CTCGTGCGAG | 1.08
57 | TTAGTTGGCG | 1.06
58 | AGGGATATTA | 0.987
59 | GTTCGAACTT | 0.984
60 | GGGGTCGAGA | 1.01
61 | TTATCCAAAT | 1.04
62 | AGCATAGTGT | 0.979
63 | TCACACCCAG | 1.4
64 | AAATCAGCGG | 1.01
65 | CATTTAAATT | 0.999
66 | GAAGTCAGTA | 1.04
67 | CTTTCAAAAT | 0.996
68 | AAACCATCTG | 0.934
69 | GATTATCGTG | 1.02
70 | GGACGGTGTA | 1.02
71 | TTTGAATCAT | 1.02
72 | GTTTCGAATG | 0.972
73 | ACAACGAAAT | 1.17
74 | TTCGCGCAAT | 4.12
75 | TATGCCGCAG | 1.04

Row | Sequence | switch fluorescence ratio
76 | AGTTTATCAG | 1.04
77 | TAGTAACTGT | 1.03
78 | AGCGGTGTG | 1.01
79 | ACTGGGTTTA | 0.976
80 | TCATTGGATG | 0.994
81 | CTTATAGTCA | 1.15
82 | AAGGGCCCCG | 0.956
83 | ATCCGAGACT | 1.06
84 | ACTGAGAGGG | 0.982
85 | TGGGCGAAC | 1
86 | AAGGGTCTG | 1.01
87 | GAGATGAATG | 1.02
88 | AGGCTACGGA | 0.988
89 | CTGGAGAAGG | 1.01
90 | GCTTGAATAC | 1.07
91 | TGACTCACGC | 1.44
92 | GGCCGAGCAC | 1.58
93 | ATTAGGGCTG | 1.04
94 | TGCGTTGCAA | 1.04
95 | GAAAGCCGCT | 0.996
96 | TGTTTGGAGT | 1
97 | GTTGAGTGCT | 0.969
98 | AGTAATTTAG | 1.04
99 | GTTCGAAAGT | 1.01
100 | CATAGGTCAA | 1.02

Row | Sequence | switch fluorescence ratio
101 | TTCAGAGATT | 0.996
102 | TGGAAGTCTG | 0.984
103 | GGATATGCCC | 0.986
104 | GCGCGGACTG | 1
105 | GAACCGTGCA | 1.1
106 | GTCCTGTCAC | 1.01
107 | GATTTGAATG | 0.944
108 | GCGCTGGTTG | 0.983
109 | CCTGCAGGGT | 1.3
110 | GGAACTTAAT | 1.01
111 | GTCTGGGGGG | 0.985
112 | TTGAAAAACG | 1.06
113 | AACCTAGGAC | 1.05
114 | GGAGGCGGCG | 0.965
115 | CATTAGAAAA | 0.999
116 | ATGAAGTATT | 1.04
117 | ATGTCTTCTA | 0.968
118 | TCGGCAATTG | 1.01
119 | ACGGTAAGTC | 1.11
120 | TTGACTGCTG | 0.974
121 | CTAGACAGGC | 1.05
122 | CCCTCTGGGG | 1.07
123 | TGAGACTGCT | 1.01
124 | CAATAGTGC | 1.02
125 | GCATGTTAAA | 1.02

Row | Sequence | switch fluorescence ratio
126 | GACTGATGTC | 0.986
127 | CATCTGCGCT | 1.38
128 | GTATAGGGAG | 1.03
129 | TATCGCATCC | 1.3
130 | ATTAGAAATA | 0.997
131 | TTACGTAGTT | 1.05
132 | TTGAATAGGT | 0.955
133 | GGGGGTAAGC | 1.06
134 | CCGTAGTGCT | 2.65
135 | GTTCCGTATT | 0.993
136 | ATAGAAGTAC | 1.34
137 | CGTTGTACAA | 0.98
138 | GGAGACGAAC | 1.19
139 | CGTTATAG | 0.984
140 | TGGAGACTTA | 0.981
141 | CGCCGTTTCT | 0.972
142 | CGAATTAGCT | 1.03
143 | GAGAGTCGTT | 0.988
144 | TCCAGGCGGG | 1.01
145 | GTGGGGAAGA | 1.01
146 | CCAATACTAT | 1.31
147 | GCTAGTTAAT | 1
148 | TCCTAGTGAG | 0.979
149 | AGTGGATGAA | 0.972
150 | TGTATCCGAT | 0.996

Row | Sequence | switch fluorescence ratio
151 | GCACCTCCGA | 2.38
152 | TAACTCCGG | 1.06
153 | AAGCAGCCG | 0.991
154 | CAAAGGATAG | 1.04
155 | TCTTGATTGG | 1
156 | CAAGCCACTC | 1.12
157 | GAGGCATACG | 1.81
158 | GCCCTTCGGG | 0.96
159 | GGATAATGTC | 0.99
160 | TTTAGGCCTG | 1.02
161 | GTGGATAATT | 1.02
162 | TCTCGAGACC | 1
163 | CGTAAATAAT | 0.996
164 | TATGAATTCT | 1.02
165 | ATGACATTAG | 1.03
166 | CGTTGGTTCT | 0.987
167 | GGTTCCGAGT | 1.1
168 | TGGAGTTAAG | 0.987
169 | GAAGGGCAA | 1.01
170 | TTTCACAACT | 0.976
171 | GGTGAAATTT | 0.997
172 | GGAGACTATC | 1.02
173 | GTTTAATAAG | 0.922
174 | GGGGTATAC | 3.07
175 | CATGGATGGA | 0.949

Row | Sequence | switch fluorescence ratio
176 | ATACCCCTTC | 1.14
177 | CCATTGTACA | 1.02
178 | ACTCGTAGAT | 0.987
179 | AGCGTCATAG | 0.94
180 | CGGTAGTACA | 1.03
181 | GCCGCCGCGC | 1.38
182 | TATTATACCC | 1.06
183 | GCTGTCGGCA | 1
184 | GCTGACGATA | 1.12
185 | TAGCTGATCT | 0.993
186 | CAGCAGCAGG | 1.65
187 | GAGTATTTAT | 0.991
188 | CATTCGGCTG | 1.04
189 | AAGAACTCGG | 1.05
190 | TAAATTTACT | 1.06
191 | CAAACTGGTT | 0.996
192 | TAGTCAATTT | 1.03
193 | ATGAGAAGAT | 1.04
194 | AATTAAAGCA | 1.09
195 | ACATGGAGGC | 1.01
196 | CGAGAGCCTG | 0.943
197 | ACGGTAAGTT | 1.08
198 | AGAAAAAGTA | 1.03
199 | TAGGGCTCGT | 0.983
200 | CCTATCGCTT | 4.85
